{"source": "the supplement of paper PMC8728848", "binders": {"B1": {"name": "Pwp2 (Candida glabrata) (protein)", "chain": "MGSSHHHHHHSSGLVPRGSHMASKNPVELNNVCTFPNDYGRIPGFTVLVGRLGLLISASDYKELLRYPGAFLIATQDTMTTSPNFELTGFPFFTGLYGLTVFPLDLLVELRGYFVPPNSGQYTFTLSDSDDAAIIFLGNPSAFPCGDLQNWPKPSEEDITVTDHLFPSRTLYLIEGVAYPMRIAYYNGIGAGRLNAAFIDPSGTRHTNWEGYIWQYDPCSTCTYS"}}, "experiment_in_all_cases": "glycan array binding signal (z-score within array); higher = stronger binding", "details_in_all_cases": "glycan notation: IUPAC condensed, linker removed", "key": {"[1]": {"target": "Fuc(a1-2)[GalNAc(a1-3)]Gal(b1-3)GlcNAc(b1-6)GalNAc", "in_short": "(§1)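 Glycan array binding is given as a within-array Z-score, which can be read as non-binding when negative. The arrays, 3228 of them, came from the Consortium for Functional Glycomics database and were retained only where the protein sequence was available. Z-scores were averaged across arrays of the same protein sequence at different concentrations or buffers and across linkers.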"}, "[2]": {"target": "Fuc(a1-2)[GalNAc(a1-3)]Gal(b1-4)Glc", "in_short": "as §1"}, "[3]": {"target": "Fuc(a1-2)[GalNAc(a1-3)]Gal(b1-4)GlcNAc", "in_short": "as §1"}, "[4]": {"target": "Fuc(a1-2)[GalNAc(a1-3)]Gal(b1-4)GlcNAc(b1-2)Man", "in_short": "as §1"}, "[5]": {"target": "Fuc(a1-2)[GalNAc(a1-3)]Gal(b1-4)GlcNAc(b1-2)Man(a1-3)[Fuc(a1-2)[GalNAc(a1-3)]Gal(b1-4)GlcNAc(b1-2)Man(a1-6)]Man(b1-4)GlcNAc(b1-4)GlcNAc", "in_short": "as §1"}, "[6]": {"target": "Fuc(a1-2)[GalNAc(a1-3)]Gal(b1-4)GlcNAc(b1-2)Man(a1-3)[Fuc(a1-2)[GalNAc(a1-3)]Gal(b1-4)GlcNAc(b1-2)Man(a1-6)]Man(b1-4)GlcNAc(b1-4)[Fuc(a1-6)]GlcNAc", "in_short": "as §1"}, "[7]": {"target": "Fuc(a1-2)[GalNAc(a1-3)]Gal(b1-4)GlcNAc(b1-3)Gal(b1-4)GlcNAc", "in_short": "as §1"}, "[8]": {"target": "Fuc(a1-2)[GalNAc(a1-3)]Gal(b1-4)GlcNAc(b1-3)Gal(b1-4)GlcNAc(b1-3)Gal(b1-4)GlcNAc", "in_short": "as §1"}, "[9]": {"target": "Fuc(a1-2)[GalNAc(a1-3)]Gal(b1-4)GlcNAc(b1-3)GalNAc", "in_short": "as §1"}, "[10]": {"target": "Fuc(a1-2)[GalNAc(a1-3)]Gal(b1-4)GlcNAc(b1-3)[Fuc(a1-2)[GalNAc(a1-3)]Gal(b1-4)GlcNAc(b1-6)]GalNAc", "in_short": "as §1"}, "[11]": {"target": "Fuc(a1-2)[GalNAc(a1-3)]Gal(b1-4)GlcNAc(b1-6)GalNAc", "in_short": "as §1"}, "[12]": {"target": "Fuc(a1-2)[GalNAc(a1-3)]Gal(b1-4)[Fuc(a1-3)]GlcNAc", "in_short": "as §1"}, "[13]": {"target": "Fuc(a1-2)[GalNAc(a1-3)]Gal(b1-4)[Fuc(a1-3)]GlcNAc(b1-3)GalNAc", "in_short": "as §1"}, "[14]": {"target": "Fuc(a1-2)[GalNAc(a1-4)]Gal(b1-4)GlcNAc", "in_short": "as §1"}, "[15]": {"target": "Fuc(a1-2)[GalNAc(b1-3)]Gal", "in_short": "as §1"}, "Fuc(a1-3)GlcNAc": {"target": "Fuc(a1-3)GlcNAc", "in_short": "as §1"}, "[16]": {"target": "Fuc(a1-3)[Gal(b1-4)]Glc6S", "in_short": "as §1"}, "[17]": {"target": "Fuc(a1-3)[Gal(b1-4)]GlcNAc", "in_short": "as §1"}, "[18]": {"target": "Fuc(a1-3)[Gal(b1-4)]GlcNAc(b1-2)Man", "in_short": "as §1"}, "[19]": {"target": "Fuc(a1-3)[Gal(b1-4)]GlcNAc(b1-2)Man(a1-3)[Fuc(a1-3)[Gal(b1-4)]GlcNAc(b1-2)Man(a1-6)]Man(b1-4)GlcNAc(b1-4)GlcNAc", "in_short": "as §1"}, "[20]": {"target": "Fuc(a1-3)[Gal(b1-4)]GlcNAc(b1-2)Man(a1-3)[Fuc(a1-3)[Gal(b1-4)]GlcNAc(b1-2)Man(a1-6)]Man(b1-4)GlcNAc(b1-4)[Fuc(a1-6)]GlcNAc", "in_short": "as §1"}, "[21]": {"target": "Fuc(a1-3)[Gal(b1-4)]GlcNAc(b1-3)Gal(b1-3)[Fuc(a1-4)]GlcNAc", "in_short": "as §1"}, "[22]": {"target": "Fuc(a1-3)[Gal(b1-4)]GlcNAc(b1-3)Gal(b1-4)[Fuc(a1-3)]GlcNAc", "in_short": "as §1"}, "[23]": {"target": "Fuc(a1-3)[Gal(b1-4)]GlcNAc(b1-3)Gal(b1-4)[Fuc(a1-3)]GlcNAc(b1-3)Gal(b1-4)[Fuc(a1-3)]GlcNAc", "in_short": "as §1"}, "[24]": {"target": "Fuc(a1-3)[Gal(b1-4)]GlcNAc(b1-3)GalNAc", "in_short": "as §1"}, "[25]": {"target": "Fuc(a1-3)[Gal(b1-4)]GlcNAc(b1-6)GalNAc", "in_short": "as §1"}, "[26]": {"target": "Fuc(a1-3)[Gal(b1-4)]GlcNAc(b1-6)[Gal(b1-3)GlcNAc(b1-3)]Gal(b1-4)Glc", "in_short": "as §1"}, "[27]": {"target": "Fuc(a1-3)[Gal(b1-4)]GlcNAc6S", "in_short": "as §1"}, "[28]": {"target": "Fuc(a1-3)[Gal3S(b1-4)]Glc", "in_short": "as §1"}, "[29]": {"target": "Fuc(a1-3)[Gal3S(b1-4)]GlcNAc", "in_short": "as §1"}, "[30]": {"target": "Fuc(a1-3)[Gal3S(b1-4)]GlcNAc6S", "in_short": "as §1"}, "[31]": {"target": "Fuc(a1-3)[GalNAc(b1-4)]GlcNAc", "in_short": "as §1"}, "[32]": {"target": "Fuc(a1-3)[GalNAc(b1-4)]GlcNAc6S", "in_short": "as §1"}, "Fuc(a1-4)GlcNAc": {"target": "Fuc(a1-4)GlcNAc", "in_short": "as §1"}, "Fuc(b1-3)GlcNAc": {"target": "Fuc(b1-3)GlcNAc", "in_short": "as §1"}, "Gal(a1-2)Gal": {"target": "Gal(a1-2)Gal", "in_short": "as §1"}, "Gal(a1-3)Gal": {"target": "Gal(a1-3)Gal", "in_short": "as §1"}, "Gal(a1-3)Gal(b1-3)GlcNAc": {"target": "Gal(a1-3)Gal(b1-3)GlcNAc", "in_short": "as §1"}, "[33]": {"target": "Gal(a1-3)Gal(b1-3)GlcNAc(b1-2)Man", "in_short": "as §1"}, "[34]": {"target": "Gal(a1-3)Gal(b1-3)GlcNAc(b1-2)Man(a1-3)[Gal(a1-3)Gal(b1-3)GlcNAc(b1-2)Man(a1-6)]Man(b1-4)GlcNAc(b1-4)GlcNAc", "in_short": "as §1"}, "[35]": {"target": "Gal(a1-3)Gal(b1-3)GlcNAc(b1-3)GalNAc", "in_short": "as §1"}, "[36]": {"target": "Gal(a1-3)Gal(b1-3)GlcNAc(b1-6)GalNAc", "in_short": "as §1"}, "[37]": {"target": "Gal(a1-3)Gal(b1-3)[Fuc(a1-4)]GlcNAc(b1-2)Man(a1-3)[Gal(a1-3)Gal(b1-3)[Fuc(a1-4)]GlcNAc(b1-2)Man(a1-6)]Man(b1-4)GlcNAc(b1-4)GlcNAc", "in_short": "as §1"}, "Gal(a1-3)Gal(b1-4)Glc": {"target": "Gal(a1-3)Gal(b1-4)Glc", "in_short": "as §1"}, "Gal(a1-3)Gal(b1-4)GlcNAc": {"target": "Gal(a1-3)Gal(b1-4)GlcNAc", "in_short": "as §1"}}, "note": "The other results are listed elsewhere or left out.", "data": [{"binder": "B1", "values": [{"measurement": "glycan array binding signal (z-score)", "setting": "[1]", "result": -0.396}, {"measurement": "glycan array binding signal (z-score)", "setting": "[2]", "result": -0.579}, {"measurement": "glycan array binding signal (z-score)", "setting": "[3]", "result": -0.475}, {"measurement": "glycan array binding signal (z-score)", "setting": "[4]", "result": -0.575}, {"measurement": "glycan array binding signal (z-score)", "setting": "[5]", "result": -0.472}, {"measurement": "glycan array binding signal (z-score)", "setting": "[6]", "result": -0.413}, {"measurement": "glycan array binding signal (z-score)", "setting": "[7]", "result": -0.413}, {"measurement": "glycan array binding signal (z-score)", "setting": "[8]", "result": -0.392}, {"measurement": "glycan array binding signal (z-score)", "setting": "[9]", "result": 0.995}, {"measurement": "glycan array binding signal (z-score)", "setting": "[10]", "result": -0.119}, {"measurement": "glycan array binding signal (z-score)", "setting": "[11]", "result": -0.33}, {"measurement": "glycan array binding signal (z-score)", "setting": "[12]", "result": -1.2}, {"measurement": "glycan array binding signal (z-score)", "setting": "[13]", "result": 0.067}, {"measurement": "glycan array binding signal (z-score)", "setting": "[14]", "result": -0.499}, {"measurement": "glycan array binding signal (z-score)", "setting": "[15]", "result": -0.597}, {"measurement": "glycan array binding signal (z-score)", "setting": "Fuc(a1-3)GlcNAc", "result": -0.085}, {"measurement": "glycan array binding signal (z-score)", "setting": "[16]", "result": 3.42}, {"measurement": "glycan array binding signal (z-score)", "setting": "[17]", "result": -0.458}, {"measurement": "glycan array binding signal (z-score)", "setting": "[18]", "result": 0.894}, {"measurement": "glycan array binding signal (z-score)", "setting": "[19]", "result": 2.54}, {"measurement": "glycan array binding signal (z-score)", "setting": "[20]", "result": -0.449}, {"measurement": "glycan array binding signal (z-score)", "setting": "[21]", "result": 0.403}, {"measurement": "glycan array binding signal (z-score)", "setting": "[22]", "result": -0.503}, {"measurement": "glycan array binding signal (z-score)", "setting": "[23]", "result": -0.492}, {"measurement": "glycan array binding signal (z-score)", "setting": "[24]", "result": -0.514}, {"measurement": "glycan array binding signal (z-score)", "setting": "[25]", "result": 0.503}, {"measurement": "glycan array binding signal (z-score)", "setting": "[26]", "result": -1.15}, {"measurement": "glycan array binding signal (z-score)", "setting": "[27]", "result": -0.144}, {"measurement": "glycan array binding signal (z-score)", "setting": "[28]", "result": -0.373}, {"measurement": "glycan array binding signal (z-score)", "setting": "[29]", "result": -0.368}, {"measurement": "glycan array binding signal (z-score)", "setting": "[30]", "result": -0.075}, {"measurement": "glycan array binding signal (z-score)", "setting": "[31]", "result": 0.493}, {"measurement": "glycan array binding signal (z-score)", "setting": "[32]", "result": -0.419}, {"measurement": "glycan array binding signal (z-score)", "setting": "Fuc(a1-4)GlcNAc", "result": -0.487}, {"measurement": "glycan array binding signal (z-score)", "setting": "Fuc(b1-3)GlcNAc", "result": -0.556}, {"measurement": "glycan array binding signal (z-score)", "setting": "Gal(a1-2)Gal", "result": -0.324}, {"measurement": "glycan array binding signal (z-score)", "setting": "Gal(a1-3)Gal", "result": -0.436}, {"measurement": "glycan array binding signal (z-score)", "setting": "Gal(a1-3)Gal(b1-3)GlcNAc", "result": -0.455}, {"measurement": "glycan array binding signal (z-score)", "setting": "[33]", "result": -0.046}, {"measurement": "glycan array binding signal (z-score)", "setting": "[34]", "result": -0.151}, {"measurement": "glycan array binding signal (z-score)", "setting": "[35]", "result": -0.036}, {"measurement": "glycan array binding signal (z-score)", "setting": "[36]", "result": -0.526}, {"measurement": "glycan array binding signal (z-score)", "setting": "[37]", "result": 0.743}, {"measurement": "glycan array binding signal (z-score)", "setting": "Gal(a1-3)Gal(b1-4)Glc", "result": -0.584}, {"measurement": "glycan array binding signal (z-score)", "setting": "Gal(a1-3)Gal(b1-4)GlcNAc", "result": -0.484}]}]}
